# Some of the results follow.
# Test system: HSkMC (human skeletal muscle cells)
# Assay: cytotoxicity call (relative viability < 0.9)
# Conditions: 10 µM
row,SMILES,cytotoxicity call
1,C[C@@H]1CCCCO[C@H](CN(C)C(=O)Nc2ccc(C(F)(F)F)cc2)[C@@H](C)CN([C@H](C)CO)C(=O)c2cc(NC(=O)Nc3ccc(C(F)(F)F)cc3)ccc2O1,inactive
2,C[C@H]1CN([C@@H](C)CO)C(=O)Cc2cc(NS(C)(=O)=O)ccc2O[C@@H]1CN(C)C(=O)NC1CCCCC1,inactive
3,C[C@H]1CN([C@@H](C)CO)C(=O)c2cccc(NS(C)(=O)=O)c2O[C@@H]1CN(C)S(=O)(=O)c1cccs1,inactive
4,COc1ccc(CN(C)C[C@H]2OCCCC[C@H](C)Oc3ccc(NC(=O)Nc4c(C)noc4C)cc3C(=O)N([C@@H](C)CO)C[C@@H]2C)cc1,inactive
5,C[C@H](CO)N1C[C@H](C)[C@@H](CN(C)C(=O)CCCN(C)C)OCc2cnnn2CCCC1=O,inactive
6,C[C@@H]1CCCCO[C@H](CN(C)S(=O)(=O)c2ccc(Cl)cc2)[C@H](C)CN([C@H](C)CO)C(=O)c2cc(NC(=O)CCC(F)(F)F)ccc2O1,inactive
7,C[C@@H]1CN([C@H](C)CO)C(=O)c2cccc(NC(=O)Nc3ccc(F)cc3)c2O[C@@H]1CN(C)C(=O)Nc1cccc2ccccc12,inactive
8,NCC[C@@H]1CC[C@@H](NC(=O)C2CCCCC2)[C@H](CO)O1,inactive
9,CC(C)NC(=O)Nc1cccc2c1O[C@H](CN(C)Cc1ccc(C(=O)O)cc1)[C@H](C)CN([C@@H](C)CO)C2=O,inactive

# Test system: HepG2
# Assay: cytotoxicity call (relative viability < 0.9)
# Conditions: 10 µM
row,SMILES,cytotoxicity call
1,CCCCCN1CC=C[C@@]23O[C@@H]4C=CCOC(=O)[C@@H]4[C@H]2C(=O)N(CCCO)[C@@H]3C1=O,inactive
2,COc1ccc(S(=O)(=O)N(C)C[C@@H]2Oc3cc(C#CC4CCCC4)ccc3S(=O)(=O)N([C@H](C)CO)C[C@H]2C)cc1,inactive
3,C[C@@H]1CCCCO[C@H](CN(C)C(=O)CCC(F)(F)F)[C@@H](C)CN([C@@H](C)CO)C(=O)c2cc(NC(=O)CCC(F)(F)F)ccc2O1,inactive
4,CN(C)CC(=O)N[C@H]1CC[C@H](CC(=O)O)O[C@H]1CO,inactive
5,C[C@H](CO)N1C[C@H](C)[C@@H](CN(C)C(=O)Nc2ccc(C(F)(F)F)cc2)OCCCC[C@H](C)Oc2ccc(NS(=O)(=O)c3cccs3)cc2C1=O,active
6,C[C@@H]1CN([C@H](C)CO)C(=O)Cc2cc(NS(=O)(=O)c3cn(C)cn3)ccc2O[C@H]1CN(C)S(=O)(=O)c1ccc(Cl)cc1,inactive
7,C[C@H](CO)N1C[C@H](C)[C@H](CN(C)C(=O)Nc2ccc3c(c2)OCO3)Oc2ncc(-c3cncnc3)cc2C1=O,inactive
8,C[C@H](CO)N1C[C@H](C)[C@@H](CN(C)S(C)(=O)=O)Oc2ccc(NS(=O)(=O)c3ccccc3)cc2CC1=O,inactive
9,C[C@@H]1CCCCO[C@@H](CN(C)C(=O)Nc2ccc(F)cc2)[C@@H](C)CN([C@H](C)CO)C(=O)c2cc(NS(=O)(=O)c3ccc(F)cc3)ccc2O1,inactive
10,Cc1ccc(S(=O)(=O)N(C)C[C@@H]2Oc3ccc(NS(=O)(=O)c4c(C)noc4C)cc3CC(=O)N([C@@H](C)CO)C[C@@H]2C)cc1,inactive
11,c1ccc2n[nH]nc2c1,inactive
12,C[C@@H]1CN([C@H](C)CO)C(=O)CCCn2cc(nn2)CO[C@@H]1CN(C)C(=O)Nc1cccc(C(F)(F)F)c1,inactive
13,C[C@H](CO)N1C[C@H](C)[C@H](CN(C)C(=O)Nc2ccc3c(c2)OCO3)Oc2c(NS(C)(=O)=O)cccc2C1=O,inactive
14,C[C@H]1CN([C@@H](C)CO)C(=O)c2cccc(NC(=O)C3CCOCC3)c2O[C@@H]1CN(C)S(=O)(=O)c1cccs1,inactive
15,CC(C)NC(=O)Nc1ccc2c(c1)CC(=O)N([C@@H](C)CO)C[C@@H](C)[C@@H](CN(C)Cc1ccc(C(=O)O)cc1)O2,inactive
16,C[C@H](CO)N1C[C@H](C)[C@@H](CN(C)C(=O)Nc2ccccc2)OCCCC[C@H](C)Oc2ccc(NC(=O)Nc3ccc(F)cc3)cc2C1=O,inactive
17,Cc1cc(C(=O)Nc2cccc3c2O[C@H](CN(C)S(=O)(=O)c2cccs2)[C@H](C)CN([C@H](C)CO)C3=O)n(C)n1,inactive
18,C[C@H](CO)N1C[C@H](C)[C@@H](CN(C)C(=O)NC2CCCCC2)Oc2c(NC(=O)C3CCOCC3)cccc2C1=O,inactive
19,C=CCN1C[C@@H](C(=O)O)CCC1=O,inactive
20,CO[C@H]1CN(C)C(=O)c2cc(NC(=O)Nc3ccccc3F)ccc2OC[C@@H](C)N(CCC(F)(F)F)C[C@@H]1C,inactive

row,SMILES,cytotoxicity call
1,COc1ccc(S(=O)(=O)N(C)C[C@H]2Oc3ccc(NC(=O)CCCN(C)C)cc3C(=O)N([C@H](C)CO)C[C@H]2C)cc1,inactive
2,O=C(Nc1cccc2cccnc12)[C@H]1[C@@H](c2ccc(Br)cc2)CC(=O)N1C(=O)OCc1ccccc1,inactive
3,C[C@H](CO)N1C[C@H](C)[C@H](CN(C)Cc2ccncc2)Oc2c(NC(=O)c3cnccn3)cccc2C1=O,inactive
4,CO[C@H]1CN(C)C(=O)c2ccc(NC(=O)C3CC3)cc2OC[C@@H](C)N(C(=O)C2CCOCC2)C[C@H]1C,inactive
5,C[C@@H]1CN([C@H](C)CO)C(=O)c2cc(NS(=O)(=O)c3cn(C)cn3)ccc2O[C@H]1CN(C)S(=O)(=O)c1cn(C)cn1,inactive
6,CCOC(=O)[C@@H](C#N)C(=O)C1CC1,inactive
7,CN(C)CC(=O)N[C@@H]1C=C[C@H](CC(=O)O)O[C@H]1CO,inactive
8,C[C@@H]1CN([C@@H](C)CO)C(=O)c2cc(NC(=O)Cc3ccccc3)ccc2O[C@@H]1CN(C)S(=O)(=O)c1cccs1,inactive
9,C[C@@H]1CCCCO[C@H](CN(C)S(=O)(=O)c2ccc(F)cc2)[C@@H](C)CN([C@@H](C)CO)C(=O)c2cc(NC(=O)Nc3ccc4c(c3)OCO4)ccc2O1,inactive
10,C=CC[C@H](CC(=O)N[C@@H](CO)Cc1ccccc1)C(=O)N[C@H](COC(=O)[C@@H](CC=C)Cc1ccc(F)cc1)Cc1c[nH]c2ccccc12,inactive
11,C[C@@H]1CCCCO[C@H](CN(C)C(=O)Nc2ccc(C(F)(F)F)cc2)[C@@H](C)CN([C@H](C)CO)C(=O)c2cc(NC(=O)Nc3ccc(C(F)(F)F)cc3)ccc2O1,inactive
12,C[C@H]1CN([C@@H](C)CO)C(=O)Cc2cc(NS(C)(=O)=O)ccc2O[C@@H]1CN(C)C(=O)NC1CCCCC1,inactive
13,C[C@H]1CN([C@@H](C)CO)C(=O)c2cccc(NS(C)(=O)=O)c2O[C@@H]1CN(C)S(=O)(=O)c1cccs1,inactive
14,COc1ccc(CN(C)C[C@H]2OCCCC[C@H](C)Oc3ccc(NC(=O)Nc4c(C)noc4C)cc3C(=O)N([C@@H](C)CO)C[C@@H]2C)cc1,inactive
15,C[C@H](CO)N1C[C@H](C)[C@@H](CN(C)C(=O)CCCN(C)C)OCc2cnnn2CCCC1=O,inactive
16,C[C@@H]1CCCCO[C@H](CN(C)S(=O)(=O)c2ccc(Cl)cc2)[C@H](C)CN([C@H](C)CO)C(=O)c2cc(NC(=O)CCC(F)(F)F)ccc2O1,active
17,C[C@@H]1CN([C@H](C)CO)C(=O)c2cccc(NC(=O)Nc3ccc(F)cc3)c2O[C@@H]1CN(C)C(=O)Nc1cccc2ccccc12,inactive
18,NCC[C@@H]1CC[C@@H](NC(=O)C2CCCCC2)[C@H](CO)O1,inactive
19,CC(C)NC(=O)Nc1cccc2c1O[C@H](CN(C)Cc1ccc(C(=O)O)cc1)[C@H](C)CN([C@@H](C)CO)C2=O,inactive

# Source: the antibiotic and cytotoxicity screens of Wong et al. (2023)
